According to article PMC4336329 (PLoS ONE, 2015):
About 14,000 (4.5%) of roughly 310,000 compounds showed an effect of 50% or more. Effects have a minus sign here. Some of the results follow.
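Further: peak tail current of the secondary pulse compared with the same well before compound.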

What follows are compounds tested against human ether-à-go-go-related gene (hERG) potassium channel (human, UniProt Q12809) (assay: primary screen, population patch clamp on CHO cells stably expressing hERG).
Sequence of human ether-à-go-go-related gene (hERG) potassium channel (Q12809 whole entry, looked up): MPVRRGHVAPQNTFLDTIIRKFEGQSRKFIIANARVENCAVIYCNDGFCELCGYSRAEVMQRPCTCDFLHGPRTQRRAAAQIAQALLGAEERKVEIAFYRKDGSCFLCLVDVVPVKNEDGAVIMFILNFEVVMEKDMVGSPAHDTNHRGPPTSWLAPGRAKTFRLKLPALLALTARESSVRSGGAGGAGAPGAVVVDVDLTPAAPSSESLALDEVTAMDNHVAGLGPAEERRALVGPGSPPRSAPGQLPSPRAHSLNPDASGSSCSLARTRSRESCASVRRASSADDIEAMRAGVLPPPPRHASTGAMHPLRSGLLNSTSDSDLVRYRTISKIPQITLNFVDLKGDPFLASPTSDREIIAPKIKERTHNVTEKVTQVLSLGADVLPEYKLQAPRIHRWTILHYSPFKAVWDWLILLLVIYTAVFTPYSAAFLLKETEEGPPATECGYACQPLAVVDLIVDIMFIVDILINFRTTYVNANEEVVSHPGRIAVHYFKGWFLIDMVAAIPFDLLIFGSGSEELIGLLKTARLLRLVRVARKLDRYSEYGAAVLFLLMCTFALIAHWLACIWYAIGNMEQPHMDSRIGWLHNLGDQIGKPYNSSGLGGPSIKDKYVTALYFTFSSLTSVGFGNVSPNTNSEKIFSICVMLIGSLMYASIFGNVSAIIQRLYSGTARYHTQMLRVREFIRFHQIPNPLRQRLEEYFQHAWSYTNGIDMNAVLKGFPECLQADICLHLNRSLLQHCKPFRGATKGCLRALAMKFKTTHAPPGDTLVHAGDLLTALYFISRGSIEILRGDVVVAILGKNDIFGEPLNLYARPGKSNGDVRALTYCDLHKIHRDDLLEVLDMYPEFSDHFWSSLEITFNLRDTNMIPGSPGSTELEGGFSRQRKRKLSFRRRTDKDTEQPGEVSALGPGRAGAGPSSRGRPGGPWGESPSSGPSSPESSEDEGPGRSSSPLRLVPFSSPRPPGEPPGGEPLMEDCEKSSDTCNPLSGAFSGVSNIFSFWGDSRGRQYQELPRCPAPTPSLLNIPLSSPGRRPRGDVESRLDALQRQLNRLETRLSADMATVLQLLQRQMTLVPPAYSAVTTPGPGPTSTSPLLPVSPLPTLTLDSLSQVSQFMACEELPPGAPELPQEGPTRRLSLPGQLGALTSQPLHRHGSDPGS
In the case of `CC1(C)CC(=O)C/C(=N\NC(=S)NCc2ccccc2)C1`, the “hERG current change (%, negative = inhibition) at 10uM” value is reported as 13.8%. With `Cc1cc(NC(=O)c2ccccc2)ncc1NC(=O)c1ccco1` the “hERG current change (%, negative = inhibition) at 10uM” value was 6.64%. For `COc1cccc(NC(=O)CSc2nnc(CNC(=O)c3ccco3)n2C)c1`, the “hERG current change (%, negative = inhibition) at 10uM” value was 2.13%. For `COCc1cc(Sc2cccc(Cl)c2Cl)nc(-c2ccccc2)n1`, the “hERG current change (%, negative = inhibition) at 10uM” value was 9.15%. For `CC1=C(C(=O)OCc2ccccc2)C(c2ccccc2OC(F)F)NC(=O)N1` (stereo not drawn), the “hERG current change (%, negative = inhibition) at 10uM” value was -17.2%. In the case of `O=C(O)c1ccc(NC(=O)c2cccc(N3C(=O)C4C5CCC(C5)C4C3=O)c2)cc1` (stereo not drawn), the “hERG current change (%, negative = inhibition) at 10uM” value is reported as 23.9%. With `O=C(O)C1=CC[C@@H](c2ccc(Cl)cc2)N(S(=O)(=O)c2ccc(Cl)cc2)[C@H]1c1ccccc1` the “hERG current change (%, negative = inhibition) at 10uM” value was -0.499%. For `CCOc1ccc(NC(=S)N(CCc2c(C)[nH]c3ccc(C)cc23)Cc2ccco2)cc1`, the “hERG current change (%, negative = inhibition) at 10uM” value was 3.28%. With `CCCCCC(CC(=O)NO)C(=O)NC(C(=O)N1CCCC1CO)C(C)C` (stereo not drawn) the “hERG current change (%, negative = inhibition) at 10uM” value was 16.3%. In the case of `O=C(c1cc(COc2ccccc2)on1)N1CCCC(OCc2cccnc2)C1` (stereo not drawn), the “hERG current change (%, negative = inhibition) at 10uM” value is reported as -16.6%. For `CCN(CC(=O)NCc1ccc(F)cc1)C(=O)CCNS(=O)(=O)c1cccc(C)c1`, the “hERG current change (%, negative = inhibition) at 10uM” value was -51.9%. With `CC1CN(CCOc2ccc(Cl)c(Cl)c2)CC(C)O1.O=C(O)C(=O)O` (stereo not drawn) the “hERG current change (%, negative = inhibition) at 10uM” value was -5.18%. For `CCc1nc(SCC(=O)Nc2cccc(C(F)(F)F)c2)c2c(=O)n(C)c(=O)n(C)c2n1`, the “hERG current change (%, negative = inhibition) at 10uM” value was 1.82%. `COc1c(C(=O)Nc2ccccc2N2CCOCC2)cc2ccccc2c1Br` was tested, and the “hERG current change (%, negative = inhibition) at 10uM” value was 24.1%. In the case of `O=C(CCN1C(=O)COc2ccccc21)NCCC1=CCCCC1`, the “hERG current change (%, negative = inhibition) at 10uM” value is reported as -6.4%. In the case of `C(#CCN1CCCC1)CC(c1ccccc1)c1ccccc1.Cl`, the “hERG current change (%, negative = inhibition) at 10uM” value is reported as -50.5%. In the case of `CCOCCCn1c(SCC(=O)NC(C)(C)C)nc2ccccc2c1=O`, the “hERG current change (%, negative = inhibition) at 10uM” value is reported as -14.3%. For `COc1cc2c(cc1OC)CN(C(=S)Nc1cccc(Cl)c1C)CC2`, the “hERG current change (%, negative = inhibition) at 10uM” value was -4.6%. With `CSc1nnc(Cn2c(=O)sc3ccccc32)n1CCc1ccccc1` the “hERG current change (%, negative = inhibition) at 10uM” value was -13%. With `Cc1cccc(NC(=S)NC2CCCC2)n1` the “hERG current change (%, negative = inhibition) at 10uM” value was -0.725%. For `O=C(COc1ccc(Cl)cc1)Nc1nc(-c2ccncc2)cs1`, the “hERG current change (%, negative = inhibition) at 10uM” value was 18.1%. With `CCn1cc(C(=O)N[C@@H](CCSC)C(=O)NCCO)c(=O)c2cc3c(cc21)OCO3` the “hERG current change (%, negative = inhibition) at 10uM” value was 20.6%. For `COCCNC(=O)/C(C#N)=C/c1cc(C(C)C)c(OC)cc1C`, the “hERG current change (%, negative = inhibition) at 10uM” value was 35.5%. `O=C(Nc1c2c(nn1-c1cccc(Cl)c1)CS(=O)(=O)C2)C1CC1` was tested, and the “hERG current change (%, negative = inhibition) at 10uM” value was -66.9%.
